The whole screen tested about 270,000 compounds, of which about 620 (0.23%) were called active. Inconclusive means that the source gave no clear call. Such entries were picked first, then a sample of the others. The call rests on the fitted dose curve; in most records, active means well fitted inhibition curve with a large enough effect in the polarisation, with a control signal flat (not every such curve was filed as active); inconclusive means small, poorly fitted or top-dose-only effect, or effect the other way, or a change in a side signal; inactive means no such curve, though single readings can be large or run the other way; the % refers to the polarisation. Where the call is inconclusive, the potency comes from a doubtful curve fit. “Side channel” marks fits to a control or component signal instead of the main read-out.
Target: Menin (Homo sapiens) (UniProt O00255)
Test: qHTS Assay for Inhibitors Targeting the Menin-MLL Interaction in MLL Related Leukemias: Competition With Texas Red Labeled MLL-derived Mutant Peptide; on FP activity change, negative = inhibition: % of control where 0% means no effect
Settings: fluorescence polarization; FP activity change, negative = inhibition: at 61.6 µM (top of the series)
Potency means the concentration at half of the fitted maximal effect; tags describe the fitted curve by direction and shape or compound fluorescence and quenching.

Chain of UniProt O00255 (O00255 whole entry, looked up): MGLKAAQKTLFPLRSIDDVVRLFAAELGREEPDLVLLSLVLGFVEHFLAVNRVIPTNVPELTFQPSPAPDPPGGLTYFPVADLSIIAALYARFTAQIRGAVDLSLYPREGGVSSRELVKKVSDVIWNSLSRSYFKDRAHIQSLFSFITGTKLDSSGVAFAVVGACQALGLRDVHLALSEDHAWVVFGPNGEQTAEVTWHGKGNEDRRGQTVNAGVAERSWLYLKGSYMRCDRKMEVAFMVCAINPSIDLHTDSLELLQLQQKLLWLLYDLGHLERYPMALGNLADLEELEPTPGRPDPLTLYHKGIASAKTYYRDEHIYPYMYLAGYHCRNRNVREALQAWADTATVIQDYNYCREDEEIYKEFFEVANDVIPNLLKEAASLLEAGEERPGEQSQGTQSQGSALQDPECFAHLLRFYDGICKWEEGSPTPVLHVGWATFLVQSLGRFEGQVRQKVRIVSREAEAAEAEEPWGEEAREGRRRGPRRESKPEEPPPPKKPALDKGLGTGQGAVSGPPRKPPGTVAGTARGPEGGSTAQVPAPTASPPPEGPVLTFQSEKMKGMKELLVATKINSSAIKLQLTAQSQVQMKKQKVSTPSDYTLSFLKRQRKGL

Potency, inconclusive:
COc1cccc(NC(=O)/C=C/c2ccco2)c1 35.5 µM [quencher, side channel, single point]
Cc1ccc(S(=O)(=O)N2CCN(C(=O)c3ccco3)CC2)cc1C 11.2 µM [inhibitor, partial curve, poor fit]
O=C(CN1C(=O)NC2(CCCCC2)C1=O)Nc1ccc(F)cc1 28.2 µM [quencher, side channel, single point]
CC(=O)Nc1ccc(NC(=O)CSc2nnnn2-c2ccc3c(c2)OCCO3)cc1 39.8 µM [fluorescent, side channel, single point]
CCN(CC)S(=O)(=O)c1cccc(C(=O)N/N=C/c2cccc(O)c2O)c1 11.2 µM [quencher, side channel, partial curve]
Cc1cnc(NC(=O)c2cc3c(C)nn(Cc4ccccc4Cl)c3s2)s1 2.82 µM [quencher, side channel, full curve]
CC(C)=CC(=O)N1CCCc2ccccc21 8.91 µM [inhibitor, full curve, poor fit]
CCOc1nc(OCC)c2cnn(C)c2n1 35.5 µM [inhibitor, partial curve]
O=[N+]([O-])c1cc(Cc2ccccc2)cc(C=Nc2ccc(N3CCOCC3)cc2)c1O 3.98 µM [inhibitor, full curve]
COc1ccccc1CNC(=O)c1[nH]c(C)c(C(C)=O)c1C 25.1 µM [inhibitor, partial curve]
COc1ccc(OC)c(NC(=O)c2ccno2)c1 22.4 µM [quencher, side channel, partial curve]
Cc1ccc(C(=O)NCCNc2nc3cc(C)c(C)cc3cc2C)cc1 5.01 µM [fluorescent, side channel, full curve, poor fit]
O=c1cc(CN2CCN(S(=O)(=O)/C=C/c3ccccc3)CC2)c2ccc(O)cc2o1 28.2 µM [quencher, side channel, single point]
Cc1nnc(NC(=O)CSc2ncn(-c3ccccc3)n2)s1 28.2 µM [inhibitor, single point]
COc1ccc(CN(CC2CCCO2)C(=O)c2cc3sccc3n2C)c(OC)c1 (configuration not stated) 2.82 µM [fluorescent, side channel, full curve, poor fit]
O=C1Oc2ccccc2C(=O)C1C(CC(O)c1ccc(-c2ccc(Br)cc2)cc1)c1ccccc1 (configuration not stated) 25.1 µM [quencher, side channel, partial curve]
COc1cccc(C(=O)Nc2nnc(-c3ccc(OC)cc3OC)s2)c1 12.6 µM [inhibitor, single point]
CCOC(=O)NC(=O)/C(C#N)=N/Nc1c(F)cccc1F 35.5 µM [quencher, side channel, single point]
CCc1ccc(S(=O)(=O)Nc2ccc(-c3nc4cccnc4s3)cc2)s1 20 µM [quencher, side channel, partial curve]
Nc1nonc1-n1nnc(C(=O)N/N=C/c2cccc(Cl)c2)c1CSc1ccc(Cl)cc1 3.16 µM [inhibitor, partial curve]
Cc1csc(NC(=O)c2sc3nc(-c4cccs4)ccc3c2N)n1 25.1 µM [quencher, side channel, partial curve]
O=C(Nc1ccc(O)cc1)c1ccc2c(c1)C(=O)N(Cc1ccco1)C2=O 35.5 µM [quencher, side channel, single point]
COc1ccc(OC)c(NC(=O)CN(Cc2ccc(F)cc2)C2CCCCC2)c1 2.51 µM [fluorescent, side channel, full curve]
CC(=O)c1ccc(NC(=O)Nc2cccc(Cl)c2)cc1 6.31 µM [quencher, side channel, partial curve]
CCNc1c(NS(=O)(=O)c2ccc([N+](=O)[O-])cc2)c(=O)oc2ccccc12 28.2 µM [quencher, side channel, single point]
O=C(NN=C1CCN(Cc2ccccc2)CC1)c1cc(Br)ccc1O 22.4 µM [quencher, side channel, partial curve]
CC(C)Oc1cc(O)c2c(=O)c(-c3ccc(O)cc3)coc2c1 25.1 µM [quencher, side channel, single point]
O=C(c1cccc(Oc2ccc([N+](=O)[O-])cc2Cl)c1)N1CCCCC1 2.24 µM [inhibitor, full curve]
COc1ccc2nc(Nc3nc(-c4cc5ccccc5oc4=O)cs3)sc2c1 2.51 µM [quencher, side channel, full curve]
Nc1nc(=S)[nH]c2c1C1(CCCC1)Cc1ccccc1-2 0.708 µM [inhibitor, full curve, poor fit]
O=C(Nc1ccc(Cl)cc1)C1CCC(=O)N1Cc1ccccc1Cl (configuration not stated) 14.1 µM [inhibitor, partial curve]
COc1ccccc1CN1CCN(Cc2nc(-c3ccc(C)cc3)oc2C)CC1 11.2 µM [fluorescent, side channel, partial curve]
O=[N+]([O-])c1cccc(/C=N/Nc2cc(Cl)nc(-c3ccccc3)n2)c1 3.55 µM [quencher, side channel, full curve]
COc1ccccc1N(CC(=O)NCCc1ccccc1)C(=O)CCC(=O)Nc1cc(C)ccn1 3.16 µM [fluorescent, side channel, partial curve]
CSCCC(C(=O)N1C[C@]2(C)C[C@H]1CC(C)(C)C2)N1C(=O)c2ccccc2C1=O (some centres not stated) 10 µM [fluorescent, side channel, partial curve]
COc1ccc(C(=O)Nc2cccc(-c3cnc4ccccc4n3)c2)cc1 28.2 µM [quencher, side channel, single point]
COCCNC(=S)N(CCc1c(C)[nH]c2ccc(Cl)cc12)Cc1cccs1 3.55 µM [quencher, side channel, full curve]
O=C(N/N=C\c1cccc([N+](=O)[O-])c1O)C1COc2ccccc2O1 (configuration not stated) 39.8 µM [quencher, side channel, partial curve]
Cc1ccc(C(C)C)c(OCC(O)CN2CCc3ccccc3C2)c1 (configuration not stated) 5.62 µM [fluorescent, side channel, partial curve]
OC(CNCCC(c1ccccc1)c1ccccc1)COc1ccccc1 (configuration not stated) 3.55 µM [fluorescent, side channel, full curve, poor fit]
CN1CCN(Cc2cccc3ncccc23)CC1CCO (configuration not stated) 28.2 µM [inhibitor, single point]
O=C(NCCCc1ccccc1)[C@@H]1Cc2ccccc2CN1 31.6 µM [fluorescent, side channel, single point]
COCc1nc2oc3ccc(C)cc3c(=O)c2cc1C(=O)OC 39.8 µM [quencher, single point]
COC(=O)N/N=C/c1c(C)nn(-c2cccc(Cl)c2)c1Cl 39.8 µM [inhibitor, single point]
CCc1ccc(S(=O)(=O)Nc2ccc(O)c3ccccc23)cc1 15.8 µM [quencher, side channel, partial curve]
COc1cccc(-c2nc(NC3CCCC3)c3ccccc3n2)c1O 10 µM [quencher, side channel, partial curve]
CN(C)c1ccc(NC2=C(Cl)C(=O)c3ccccc3C2=O)cc1 7.94 µM [inhibitor, full curve]
O=C(CSc1nc2ccccc2o1)c1ccccc1 25.1 µM [inhibitor, single point]
CCC/C=C(\CCC)C(NC(=O)c1ccco1)c1ccc(C(=O)OC)cc1 (configuration not stated) 8.91 µM [fluorescent, side channel, partial curve]
CC(=O)c1ccc(NC(=O)COC(=O)c2ccccc2N=Nc2ccc(N(C)C)cc2)cc1 3.16 µM [quencher, side channel, partial curve]
CCC1(CC)Cc2ccccc2-c2nc(CN(C)C)[nH]c(=O)c21 10 µM [inhibitor, partial curve]
Cc1ccc(S(=O)(=O)NCCNc2ccc([N+](=O)[O-])cc2)cc1 10 µM [quencher, side channel, partial curve]
O=C1OC(Nc2cc(Br)cc3cccnc23)c2ccccc21 (configuration not stated) 39.8 µM [inhibitor, single point]

FP activity change, negative = inhibition, inactive:
CCCCC/C=C\C/C=C\C/C=C\C/C=C\CCCCCC(=O)NCCCC(=O)O 0.176%
CCOC(=O)c1cnc(SCc2cccc3ccccc23)nc1N -1.16%
C[C@@H]1CN=C2N(CCNC(=O)CCC3CCCCC3)[C@H](Cc3ccc(O)cc3)CN21 -0.592%
O=C(Nc1nncs1)C1c2ccccc2Oc2ccccc21 1.49%
